From the supplement of paper PMC11417369
This is one part of the list.

Test system: PF3D7_0420300 AP2 domain 1 (GST-tagged)
Test: gcPBM binding intensity (ln(normalized median fluorescence intensity)); higher = stronger DNA binding
Summary of the method: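 Binding intensity is defined as the maximum Masliner-normalised natural-log median intensity across replicate spots for either probe orientation. It was measured on an Agilent 4 × 180k array of primer-extended double-stranded 36-bp intergenic genomic probes and negative controls, to which GST-tagged P. falciparum DNA-binding domains made in E. coli were applied for 1 h in 1× PBS with 1% milk, 0.2 mg/ml BSA, 0.5% salmon testes DNA and 0.03% Triton X-100. Detection was by Alexa488 anti-GST antibody and scanning at 488 nm.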

Row | Sequence | gcPBM binding intensity (ln)
1 | ATGACCCACTTTTCTGCACACATAAAAAATATATAA [CACACA_site8092] | 9.56
2 | AAAATCTATAATATAACACACATATATTCTATATGG [CACACA_site7821] | 9.31
3 | CATACATACAGACACACACACATATAAATACATACA [CACACA_site6533] | 10
4 | TTCCTGTTAATTACAACACACAATTCTTATTTTATG [CACACA_site6507] | 9.58
5 | ATTTTCAAATTCTATGCATGTGTATATTATAGATAA [TGCATGCA_site1003] | 9.18
6 | GCACTCGTAAAAAGCACACATATAAAAACATTTATA [CACACA_site322] | 9.19
7 | TGAACAGACAAATACACACACTCAAAAAAAAAAAAG [CACACA_site7287] | 9.75
8 | CAATGCTTTATCAATACATGCATATATATAGAAATA [TGCATGCA_site857] | 8.97
9 | TTTTTTCTATTGAGCACACATATCACGATTAGTACT [CACACA_site313] | 9.37
10 | GCTCAATTTTTGGGTACACACAAATGTATAATAATA [CACACA_site2388] | 9.37
11 | ATATATATTATTTCTACACACATATATATAATATGT [CACACA_site3374] | 9.71
12 | CAAAGAGAAATAAACACACACAAAATAAAGAAAAAA [CACACA_site2245] | 9.74
13 | TTCTTTTTTCAACACACACACACAAGAAAATATATA [CACACA_site9019] | 10
14 | AAAAAAAAAAAAAAAACACACATATAGATTTATATA [CACACA_site7196] | 9.37
15 | ATATGTGATTTCTAATGTACACAAAAAAAAAAAAAA [XGTACX_site7701] | 9
16 | TCTTCAAACAAAAAAAATAATAAAAAGTACAAAATG [CACACA_negctrl_site363] | 9.38
17 | TTATGTCATAAATGCACACATATATAAATACAGATA [CACACA_site4959] | 9.29
18 | GGGGTATCTTCCTATGCACACTTGTTATGTACTAAC [CACACA_site4610] | 9.67
19 | TTTTTGTTTTTGTTTTGTACTCATACATACTATCAT [XGTACX_site4210] | 9.45

Row | Sequence | gcPBM binding intensity (ln)
20 | CTTTTATTAAAATTCACACACATAAATTTTTATAAA [CACACA_site1993] | 9.18
21 | ATATATACGTATGAATGTATATTTGTTTGATTTTTT [CACACA_negctrl_site835] | 9.4
22 | AATATAAAAAAAAAATGTACATATTATATATATATA [XGTACX_site5113] | 9.25
23 | AAAAATTTTTTTTCATTTGTTTTTATTCCGTAAAAA [CACACA_negctrl_site1217] | 8.92
24 | ACCGAAGGAATTTATAGTACACATCATAAATAAATT [XGTACX_site4100] | 9.13
25 | TATAATATAAAATAATGTACTTTGAAATATGACATA [XGTACX_site3579] | 9.06
26 | AGTTTGATTTTTTCTTATAATATATTATTATATATT [CACACA_negctrl_site376] | 9.5
27 | TTTTTATTAATAGATATAAATATATAATATGAATGT [TGCATGCA_negctrl_site309] | 9.11
28 | ATATATATATATATTTGTACAGATTTATATTATAAT [XGTACX_site7612] | 9.13
29 | GAAAATTTAATATAGAACGAAAGCATACACATATAT [GTGCAC_negctrl_site424] | 9.6
30 | CCATATAATATGAACAGTACACACAAAATAAATTCG [XGTACX_site7590] | 9.83
31 | AAATATTATAGCACCACACACTTATTTTATATATAT [CACACA_site5281] | 9.55
32 | AGATATTTCATTTAAAGTACATTCTTTATCACATAA [XGTACX_site6731] | 9.05
33 | CACACGCACAAAAACACACACAAAGGTGTTCTTATA [CACACA_site6724] | 9.64
34 | TTATTTTTTTTTTTTCGTACTTATTTATCTTGGTAT [XGTACX_site78] | 9.37
35 | TATATATATATATATGGTACAGTTTATGCCTTTTAA [XGTACX_site6695] | 9.14
36 | ATTTTCATGATAAAGGTGCAATTATTTTTATAAGAA | 9.01
37 | TATAATATATACAAATGTACATATATATATATATAT [XGTACX_site4559] | 9.07
38 | TTATTTATAATATATACACACTAACATTATTTATCC [CACACA_site4835] | 9.4

Row | Sequence | gcPBM binding intensity (ln)
39 | ATATATATGTGAAAATCACACATTGCTTATCTGTAA [CACACA_site6044] | 9.14
40 | TGTTTTATTATTTATAGTACATAAAAAAATATTGTA [XGTACX_site8963] | 9.06
41 | TTCGTATATTATTAATGTACATTATAAAATCAATAT [XGTACX_site5751] | 9.14
42 | AAAAAAACATGAAACACACACAAATATATATATATA [CACACA_site1884] | 9.74
43 | AACAATATTATTGTTTGTACTCACATATATAATATA [XGTACX_site8063] | 9.08
44 | AAAAAAAAAAAAAAAAAAAAAAAAAAAATTCTATAT [GTGCAC_negctrl_site468] | 9.36
45 | AAGGCATACAATACCTGTACGCAACCTTAAAAAGAA [XGTACX_site6070] | 9.11
46 | ATAATATATATACAAACACACAATTGTGTCCACATT [CACACA_site1747] | 9.74
47 | TGTACATATATATAATATATATATCATCATATTTTC [CACACA_negctrl_site1750] | 9.23
48 | TATATATATATATCCACACACATACAGATATTAAGA [CACACA_site4214] | 9.73
49 | AGTATACGAATAAAATGTACATACAAATTGTTGTAA [XGTACX_site36] | 9.34
50 | TCCTTAAAATATATCACACATTTCGTTCATTTATAA [CACACA_site4346] | 9.42
51 | ATTCACGTGTCTTAAAAAAAAAAAAAAGAAAAAAAG [CACACA_negctrl_site573] | 8.91
52 | ATATATATATATATATGTACATATATATACATATAT [XGTACX_site6987] | 9.13
53 | GTCTAAGCTTATAGGCGTACACATGAATATGGATGT [XGTACX_site2439] | 9.29
54 | ATACATAAAATTAAAACACACATTTGATTAAATACG [CACACA_site7088] | 9.63
55 | ATCAAGCGCAATGTGGTGCGTAAATTTTGTATTATA | 9.25
56 | AAAGGATACAGACACACACACACATATATATATATA [CACACA_site906] | 9.99
57 | GGATTTATTATATATACACACATACATATATATATA [CACACA_site8669] | 9.71
